# According to the supplement of paper PMC11417369:
# ± gives the standard deviation of the averaged measurements. This is one part of the list.
# Test system: PfAP2-LT AP2 domain (GST-tagged)
# Experiment: gcPBM binding intensity (ln(normalized median fluorescence intensity)); higher = stronger DNA binding
# Procedure, shortened: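 The binding buffer was 1× PBS containing 1% milk, 0.2 mg/ml BSA, 0.5% salmon testes DNA and 0.03% Triton X-100. In it, GST-tagged P. falciparum DNA-binding domains expressed in E. coli were applied for 1 h to an Agilent 4 × 180k array of primer-extended double-stranded 36-bp intergenic genomic probes plus negative controls. Binding intensity, read with Alexa488 anti-GST antibody and a 488 nm scan, is the highest Masliner-normalised natural-log median intensity across replicate spots of either probe orientation.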
row,Sequence,gcPBM binding intensity (ln)
1,TGTACAAATTATACTTCGAACGAAGGGCATACATAT [XGTACX_negctrl_site37],9.04 ± 0.4
2,TATTTGTGTATTTTTACACACATTAATATATTTATA [CACACA_site7562],8.84 ± 0.39
3,TATATATATATTATATGTACACATTTGTGAATTATT [XGTACX_site5848],8.72 ± 0.3
4,TGTGTTATATATAAAGAAAAAAAAAAAAAATATATA [CACACA_negctrl_site567],8.47 ± 0.55
5,AAAAATTTAATTATTTGTACATAAAATACATTTCTG [XGTACX_site791],8.49 ± 0.56
6,TATTCCTATATAAAGACACACATATGTAACTACGAT [CACACA_site4139],8.94 ± 0.43
7,AATTTTTATTTGTACACACATACATATATATTATAT [CACACA_site993],9.25 ± 0.41
8,CACAAAATAAATTAAACACACAACATCATAGATGTA [CACACA_site4619],8.9 ± 0.45
9,TTTATATATTTCATAATACACACGAAAAAAAAAAAA [CACACA_site2970],8.53 ± 0.42
10,TGTCATCATCTTAAATGTACAAAAAGGAAATATAAA [XGTACX_site1529],8.6 ± 0.52
11,TTTTTATTTACACTTTTTATTTATATATTATGTACG [CACACA_negctrl_site158],8.85 ± 0.6
12,ATATAATCAGCTTCTCTTTTATGCTAAAAAAAAAAA [CACACA_negctrl_site1310],8.25 ± 0.3
13,ATAAATAATATAAATACACACTAAAAAAAATATATA [CACACA_site4456],8.91 ± 0.5
14,TTAGTTTATTGGTACTGTACTTTTTTTTTCTCCATT [XGTACX_site8618],8.91 ± 0.42
15,ATTTTTGAACGGTACAGTACAGAATTTAATTAACCC [XGTACX_site47],8.77 ± 0.38
16,TATCATATATGAAGGTGTACGATTTATTATATAAAT [XGTACX_site7010],8.77 ± 0.42
17,TTATTTAAAATTTTTATGCGTATATATATAGGAACA [CACACA_negctrl_site388],8.35 ± 0.39
18,TTGCATTACGAACATACACACAGAATAACTGAAAAC [CACACA_site3025],9.16 ± 0.39
19,TTCGATGAATATACAAGTACATATCCTTACGAACTG [XGTACX_site1650],8.63 ± 0.41
20,TTTTTATTAAGACATGCATGGAAACGCACTATTTTA [TGCATGCA_site999],8.71 ± 0.43
21,TATATATGCATTAAATGATGTTCCTGTTTTTTAAAA [CACACA_negctrl_site1378],8.45 ± 0.37
22,ATACGAAGTACGTACACACACTTATATGTTACTAAA [CACACA_site7812],9.26 ± 0.33

row,Sequence,gcPBM binding intensity (ln)
1,AATAAATAAATATATACACACATATATGTCTACATA [CACACA_site3158],9.14 ± 0.43
2,TTTATATCATTTCTTAAAAAAAAGGAGGTAATAGAC [TGCATGCA_negctrl_site555],8.61 ± 0.37
3,GTTAAGCAATATATATGTACTTATGGAATAGAAAAA [XGTACX_site3693],8.68 ± 0.47
4,AAGTTACAGAATATCACACATAAATTATCTGTATAT [CACACA_site5116],8.79 ± 0.4
5,TCAATTAATTATTTTTGTACACAAGAATTACTGAAT [XGTACX_site6401],8.56 ± 0.44
6,GTGTGATATAATTTTTTTAGAGCTTTATAATATTAT [CACACA_negctrl_site233],8.62 ± 0.42
7,TATGTTGATGATATTACACACCCAATGAGAAAAGGA [CACACA_site7060],8.94 ± 0.41
8,CAACCATTTGTAGGTAAACACACATTATTATTAATA [CACACA_site8842],8.88 ± 0.43
9,TGTTTATACATCAGGTGTACGCAAAATAATTGTATG [XGTACX_site206],8.87 ± 0.39
10,TTTATTTACTATTAAAGTACTAAATCATATAATTAT [XGTACX_site2580],8.56 ± 0.45
11,TATACATATACATATACACACACACCCATAAATAAA [CACACA_site8372],9.8 ± 0.22
12,TTAACACATGCTTGGTCACACACGTATGCATATTTA [CACACA_site2127],9.3 ± 0.32
13,TTTGTCAAATAATATTGTACTAAAAAATTTTGCCTT [XGTACX_site7485],8.38 ± 0.51
14,TATTTGTAATATAACACACACAAAAAAAGACTCGGA [CACACA_site1681],9.31 ± 0.3
15,ATACACACAGCCTAAACATGCATATAGAAAAAAGAA [TGCATGCA_site1028],9.14 ± 0.48
16,ATATATATATAATAAAGTACAAATTCTAAATGATAT [XGTACX_site570],8.86 ± 0.36
17,TATCTTATGTCTGAAAGTACAAATTTTTTTCTACTT [XGTACX_site2208],8.52 ± 0.38
18,ACTACGAATGGTAGAGTGCAGTCTGGAGAAAAGTAC [GTGCAC_site9681],9.02 ± 0.47
19,CTTTTTTTTTTTTTTGCGCACTGTTTAAAGGGAAAT [GTGCAC_site9815],8.83 ± 0.54
20,ATTATCTATCGTTTTTGTACTTACACCTTAATACAA [XGTACX_site7337],8.95 ± 0.47
21,AAATATTTTTAGAGTGCATGTAATAAAAATATAATG [TGCATGCA_site19],8.72 ± 0.47
22,GTGCAAAATATTTTTACACACAAATTTTTACAACAG [CACACA_site3357],8.98 ± 0.42

row,Sequence,gcPBM binding intensity (ln)
1,AAAAATAAATAAGACACACACAAAAAAAAAAAAAAA [CACACA_site1432],9.05 ± 0.48
2,AAATGAGATATAAAATGTACATATTGTAAGTAAACA [XGTACX_site1237],9.03 ± 0.45
3,TTAATTATATCAGGACGTACTAATATAAATATATAT [XGTACX_site8909],8.7 ± 0.44
4,GGGATATATTATTATACACACATATATAAAAGCTTT [CACACA_site2445],9.03 ± 0.41
5,ATATGACTGTTCATTTGTACGTATAATTATATACGT [XGTACX_site3372],8.92 ± 0.38
6,AAATAATATATTCTATATAATAAATTATAAATATAA [GTGCAC_negctrl_site558],8.23 ± 0.5
7,ATATATATATATATATATATATATATATATTATATA [XGTACX_negctrl_site48],9.12 ± 0.092
8,ATACAACTAATAAGTAGTACAATATACATATATTAT [XGTACX_site7086],8.89 ± 0.49
9,TTTTTTTTTTTTTTTTATTTATATATATATATATAT [CACACA_negctrl_site582],8.75 ± 0.35
10,AAAAAAAATGAAAGGTGTACACATACAAACATAGAA [XGTACX_site3517],9.4 ± 0.57
11,TAATTTAGATATATAAAGAATTAAAGTTAACATTCT [CACACA_negctrl_site726],8.25 ± 0.44
12,TTTTTCAGATCCTATATAGTATCATATAAATTCCAT [CACACA_negctrl_site56],8.49 ± 0.37
13,TTAAGAAAAAAAAAAAGTACACACATATAATATATA [XGTACX_site6268],8.94 ± 0.56
14,CGTTGGTATTAAAAGGTGCAATGAAATAATATATTA,8.66 ± 0.52
15,AAGATCGCATGAAATGAACACACATAAAAAAAATAT [CACACA_site9353],9.3 ± 0.54
16,AATGTAACAACTTTTTGTACTTAAGAAATAATAAAT [XGTACX_site3310],8.58 ± 0.42
17,TAAAAAATTATATTCACACACATACCCATATATATA [CACACA_site4458],9.22 ± 0.21
18,TAAAATTTATAAACTACACACATATATATAGTAATA [CACACA_site3728],8.8 ± 0.42
19,TGAGCTTCAACAATATGTACATAAAATATATTACAT [XGTACX_site4763],8.79 ± 0.4
20,TTAATAAAAGCCCATGCACACCTTAGAAAGTTTTAT [CACACA_site8003],8.7 ± 0.39
21,GTATTATAGTATAATACACACCCAAATATTAAAAAG [CACACA_site7404],9.02 ± 0.41
22,TTTCTTAAAATGTTATGTACATATTTCGTTTCAAAG [XGTACX_site6102],8.54 ± 0.41

row,Sequence,gcPBM binding intensity (ln)
1,ATATATTTCAAAGGGGTGCAGGCATATTTAAGCAAA,8.69 ± 0.49
2,TCTTTTTAATTTATATGTACTTATATTAATTATAAG [XGTACX_site7524],8.45 ± 0.45
3,TTTTTCTTTTGATGTTGTACATATATATCATATAAT [XGTACX_site1189],8.74 ± 0.37
4,GTGCATATACAAATATGTACTTAAACGTTTTTTTTT [XGTACX_site7362],8.81 ± 0.45
5,AAGACTTCTCCATATACACACACCAACAAATATAAA [CACACA_site2779],9.35 ± 0.33
6,GTTTATTCATCATACGGTACACATAAATAATATATA [XGTACX_site6931],8.71 ± 0.43
7,GATGAATAAATCAAAGCACACATACACCCACATATA [CACACA_site7986],9.67 ± 0.13
8,ATTTTTTTTTTTTTTTTTTGGTTTTCTTTAGGAGTT [CACACA_negctrl_site1258],8.57 ± 0.54
9,TTCGTTTAAATCAAGTGTACATATTATATATAATAT [XGTACX_site7599],8.79 ± 0.4
10,TAAATAATATCCCTTTGTACGTATTTTTTTTTATTA [XGTACX_site7303],8.78 ± 0.5
11,CGTTATATATGTATTACATGCAATATATGTACGTAA [TGCATGCA_site274],8.8 ± 0.3
12,GAAATAAGTTAAAATAGTACGTAGTGTTCCTTAAGT [XGTACX_site6557],8.87 ± 0.52
13,TTAGGAAAACAAAAATGTACGCATATATATTATTGA [XGTACX_site8288],8.65 ± 0.59
14,TTAAAAATAATATATTGTACACATACTTATTTTAAT [XGTACX_site1348],8.6 ± 0.39
15,TATATTTGTACATGATATTTTTTTTTTCTTTTAAAA [CACACA_negctrl_site754],8.44 ± 0.54
16,TGTATTTAGAAACATACACACATATTAAGTTTACAT [CACACA_site5689],8.98 ± 0.45
17,ATATATCTGTATGGCACACACGGATAAATATATATA [CACACA_site4668],9.21 ± 0.4
18,GGAAAATTATCAATAGCATGCAAAATGTGAATATTA [TGCATGCA_site901],9.04 ± 0.42
19,TTTCCTCATTTTATCATACACACTTATTTATATGTG [CACACA_site900],9.04 ± 0.49
20,AGAATAATACAAAAATGTACATTAATAAAAAGATAG [XGTACX_site780],9.15 ± 0.68
21,GCCAAAATATAATTTACACACTTATTAAATAATTAT [CACACA_site236],8.69 ± 0.42
22,TTATTATTTCTTAGTAGTACTATATAATTTTTTTTT [XGTACX_site1847],8.62 ± 0.45
